# Results as given in the supplement of paper PMC4967469.
# IC50 is the fitted dose that halves viability relative to control wells, and lower means more sensitive; where the fit passes the top or lowest dose, that dose stands as a limit. The AUC spans the tested range (256-fold, ending at the top dose) of the same fit; it is 1 without any effect and falls as sensitivity rises. For part of these data: An inferred top dose comes from the curve model; the source does not state it.
# Columns and labels:
# Assay in all cases: Viability of human cancer cell lines after 72 h of drug (GDSC screen)
# Bexarotene = compound: C=C(c1ccc(C(=O)O)cc1)c1cc2c(cc1C)C(C)(C)CCC2(C)C [Bexarotene]; conditions: top dose 8 µM
# Protocol: (§1)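 Human cancer cell lines in 384-well plates, medium with 10% serum, drug for 72 h over a 256-fold dose range (nine 2-fold or five 4-fold steps up to the top dose). Adherent lines were fixed and stained with the nucleic acid dye Syto60, suspension lines read with resazurin; signal relative to control wells, capped at 0 and 100%. One two-parameter sigmoid per drug and line, fitted in a mixed model over all curves with the slope shared within a line.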
# NPK76-II-72-1 = compound: COc1cc(C(=O)NC2CCN(C)CC2)ccc1Nc1ncc2c(n1)N(C1CCCC1)C(C)CC(=O)N2C [NPK76-II-72-1]; conditions: top dose 10.24 µM; top dose inferred
# Protocol: as §1
# Etoposide = compound: COc1cc([C@@H]2c3cc4c(cc3[C@@H](O[C@@H]3O[C@@H]5CO[C@@H](C)O[C@H]5[C@H](O)[C@H]3O)[C@H]3COC(=O)[C@H]23)OCO4)cc(OC)c1O [Etoposide]; conditions: top dose 16 µM
# Protocol: as §1
# YK 4-279 = compound: COc1ccc(C(=O)CC2(O)C(=O)Nc3c(Cl)ccc(Cl)c32)cc1 [YK 4-279]; conditions: top dose 10 µM
# Protocol: as §1
# BMS-345541 = compound: Cc1ccc2nc(NCCN)c3ncc(C)n3c2c1 [BMS-345541]; conditions: top dose 16 µM
# Protocol: as §1
# AZD7762 = compound: NC(=O)Nc1cc(-c2cccc(F)c2)sc1C(=O)N[C@H]1CCCNC1 [AZD7762]; conditions: top dose 2 µM
# Protocol: as §1
# GSK-650394 = compound: O=C(O)c1ccc(-c2c[nH]c3ncc(-c4ccccc4)cc23)cc1C1CCCC1 [GSK-650394]; conditions: top dose 16 µM; top dose inferred
# Protocol: as §1
# XAV 939 = compound: Oc1nc(-c2ccc(C(F)(F)F)cc2)nc2c1CSCC2 [XAV 939]; conditions: top dose 5 µM; top dose inferred
# Protocol: as §1
Cell Line,AUC (Bexarotene),IC50 (Bexarotene),AUC (NPK76-II-72-1),IC50 (NPK76-II-72-1),AUC (Etoposide),IC50 (Etoposide),AUC (YK 4-279),IC50 (YK 4-279),AUC (BMS-345541),IC50 (BMS-345541),AUC (AZD7762),IC50 (AZD7762),AUC (GSK-650394),IC50 (GSK-650394),AUC (XAV 939),IC50 (XAV 939)
"EW-3 (Ewing sarcoma, adherent)",0.97,> 8 µM,0.778,4.75 µM,0.818,10.7 µM,0.726,3.03 µM,0.893,> 16 µM,0.847,1.8 µM,0.967,> 16 µM,0.976,> 5 µM
"EW-7 (Ewing sarcoma, semi-adherent)",0.984,> 8 µM,0.564,0.938 µM,0.208,0.159 µM,0.829,5.23 µM,0.788,6.09 µM,0.634,0.278 µM,0.98,> 16 µM,0.986,> 5 µM
"EW-11 (Ewing sarcoma, adherent)",0.957,> 8 µM,0.767,4.93 µM,0.691,4.06 µM,0.775,5.16 µM,0.848,> 16 µM,0.69,0.501 µM,0.981,> 16 µM,0.894,> 5 µM
"EW-16 (Ewing sarcoma, adherent)",0.881,> 8 µM,0.803,5.37 µM,0.266,0.208 µM,0.691,2.2 µM,0.898,> 16 µM,0.713,0.516 µM,0.742,5.1 µM,0.953,> 5 µM
"EW-18 (Ewing sarcoma, suspension)",0.968,> 8 µM,0.692,2.3 µM,0.805,8.74 µM,0.695,2.3 µM,0.834,11.4 µM,0.786,0.928 µM,0.886,> 16 µM,0.968,> 5 µM
"FTC-133 (thyroid, adherent)",0.921,> 8 µM,0.986,> 10.2 µM,0.714,4.3 µM,0.732,3.09 µM,0.982,> 16 µM,0.628,0.292 µM,0.983,> 16 µM,0.952,> 5 µM
"FU97 (stomach, adherent)",0.959,> 8 µM,0.96,> 10.2 µM,0.962,> 16 µM,0.723,2.74 µM,0.883,> 16 µM,0.735,0.597 µM,0.88,> 16 µM,0.968,> 5 µM
"FU-OV-1 (ovary, adherent)",0.966,> 8 µM,0.824,8.81 µM,0.812,12.1 µM,0.899,> 10 µM,0.91,> 16 µM,0.822,1.68 µM,0.928,> 16 µM,0.962,> 5 µM
"G-292 Clone A141B1 (osteosarcoma, adherent)",0.976,> 8 µM,0.918,> 10.2 µM,0.941,> 16 µM,0.8,8.86 µM,0.941,> 16 µM,0.855,> 2 µM,0.965,> 16 µM,0.972,> 5 µM
"G-401 (kidney, adherent)",0.94,> 8 µM,0.807,5.88 µM,0.557,1.45 µM,0.707,2.55 µM,0.691,3.65 µM,0.888,> 2 µM,0.852,14.2 µM,0.981,> 5 µM
"G-402 (soft tissue, adherent)",0.879,> 8 µM,0.941,> 10.2 µM,0.496,0.972 µM,0.712,3.07 µM,0.685,3.94 µM,0.428,0.0743 µM,0.739,6.17 µM,0.907,> 5 µM
"GAK (melanoma, adherent)",0.906,> 8 µM,0.972,> 10.2 µM,0.837,,0.814,5.1 µM,0.983,> 16 µM,0.819,1.06 µM,0.924,> 16 µM,0.944,> 5 µM
"GB-1 (glioma, adherent)",0.903,> 8 µM,0.806,6.36 µM,0.559,1.49 µM,0.852,> 10 µM,0.911,> 16 µM,0.799,1.17 µM,0.706,4.26 µM,0.893,> 5 µM
"GI-1 (glioma, adherent)",0.901,> 8 µM,0.889,> 10.2 µM,0.463,0.794 µM,0.54,0.797 µM,0.881,15.5 µM,0.604,0.238 µM,0.907,> 16 µM,0.978,> 5 µM
"GI-ME-N (neuroblastoma, adherent)",0.759,3.78 µM,0.703,2.96 µM,0.715,5.12 µM,0.624,1.56 µM,0.847,> 16 µM,0.707,0.601 µM,0.959,> 16 µM,0.895,> 5 µM
"GOTO (neuroblastoma, adherent)",0.983,> 8 µM,0.884,> 10.2 µM,0.809,9.76 µM,0.563,0.951 µM,0.925,> 16 µM,0.354,0.0466 µM,0.957,> 16 µM,0.981,> 5 µM
"GR-ST (lymphoblastic leukaemia, suspension)",0.974,> 8 µM,0.533,0.801 µM,0.779,7.97 µM,0.762,4.29 µM,0.82,11.8 µM,0.574,0.208 µM,0.816,11.3 µM,0.958,> 5 µM
"GT3TKB (stomach, adherent)",0.891,7.42 µM,0.933,> 10.2 µM,0.342,0.387 µM,0.571,0.953 µM,0.972,> 16 µM,0.929,> 2 µM,0.892,14.9 µM,0.715,1.16 µM
"H9 (lymphoid neoplasm, suspension)",0.991,> 8 µM,0.784,3.54 µM,0.554,1.36 µM,0.843,5.32 µM,0.831,7.74 µM,0.573,0.191 µM,0.713,3.5 µM,0.99,> 5 µM
"H513 (mesothelioma, semi-adherent)",0.986,> 8 µM,0.984,> 10.2 µM,0.93,> 16 µM,0.866,> 10 µM,0.945,> 16 µM,0.866,> 2 µM,0.985,> 16 µM,0.972,> 5 µM
"H2369 (mesothelioma, adherent)",0.917,> 8 µM,0.985,> 10.2 µM,0.665,2.93 µM,0.703,2.39 µM,0.975,> 16 µM,0.649,0.328 µM,0.71,4 µM,0.927,> 5 µM
"H2461 (mesothelioma, adherent)",0.944,> 8 µM,0.978,> 10.2 µM,0.92,> 16 µM,0.755,4.17 µM,0.983,> 16 µM,0.665,0.405 µM,0.949,> 16 µM,0.977,> 5 µM
"H2595 (mesothelioma, adherent)",0.966,> 8 µM,0.947,> 10.2 µM,0.558,1.54 µM,0.714,3.25 µM,0.919,> 16 µM,0.904,> 2 µM,0.93,> 16 µM,0.962,> 5 µM
"H2722 (mesothelioma, adherent)",0.912,> 8 µM,0.953,> 10.2 µM,0.796,9.13 µM,0.808,6.39 µM,0.921,> 16 µM,0.776,0.957 µM,0.923,> 16 µM,0.982,> 5 µM
"H2731 (mesothelioma, adherent)",0.97,> 8 µM,0.606,1.31 µM,0.957,> 16 µM,0.631,1.52 µM,0.87,> 16 µM,0.541,0.165 µM,0.977,> 16 µM,0.971,> 5 µM
"H2869 (mesothelioma, adherent)",0.973,> 8 µM,0.882,> 10.2 µM,0.851,> 16 µM,0.862,> 10 µM,0.864,> 16 µM,0.783,1.07 µM,0.918,> 16 µM,0.953,> 5 µM
"H3118 (head and neck, adherent)",0.845,6.6 µM,0.8,5.47 µM,0.396,0.503 µM,0.708,2.56 µM,0.794,8.12 µM,0.494,0.12 µM,0.805,8.98 µM,0.926,> 5 µM
"H3255 (lung adenocarcinoma, adherent)",0.968,> 8 µM,0.914,> 10.2 µM,0.701,4.13 µM,0.829,7.94 µM,0.938,> 16 µM,0.855,> 2 µM,0.92,> 16 µM,0.921,> 5 µM
